Whole data set: some 33,000 sequences, median “E-score (-0.5 to 0.5)” near -0.013, cut for the highest 2% near 0.3. This is one part of the list.
Each sequence was assayed against T1, Msn1 (UniProt P22148) (assay: PBM E-score (8-mer binding enrichment) (E-score (-0.5 to 0.5)); higher = stronger / more preferred TF binding; most listed sequences are background and not binding sites). Details: protein concentration: 200 nM; construct: GST-full length.
T1 sequence: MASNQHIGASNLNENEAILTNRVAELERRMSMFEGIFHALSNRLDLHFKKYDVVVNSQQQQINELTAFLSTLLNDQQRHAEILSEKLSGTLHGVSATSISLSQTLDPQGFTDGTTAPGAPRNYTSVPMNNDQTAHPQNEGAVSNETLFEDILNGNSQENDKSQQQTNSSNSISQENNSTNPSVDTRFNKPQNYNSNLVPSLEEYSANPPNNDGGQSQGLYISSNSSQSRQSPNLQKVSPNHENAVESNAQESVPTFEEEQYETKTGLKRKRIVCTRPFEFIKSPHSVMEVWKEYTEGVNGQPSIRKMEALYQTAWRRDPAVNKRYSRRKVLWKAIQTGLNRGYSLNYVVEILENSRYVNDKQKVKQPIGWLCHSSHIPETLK
Procedure: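 Universal 'all 10-mer' protein binding microarrays (Agilent AMADID 015681) probed with GST-tagged S. cerevisiae TFs (full-length or DBD) made by in vitro transcription/translation (PURExpress), about 100-200 nM. Bound TF was detected with fluorescent anti-GST. Each ungapped 8-mer (which stands for itself and its reverse complement) is scored by the PBM enrichment score (E-score), a modified Wilcoxon-Mann-Whitney statistic from -0.5 to +0.5, computed with the Universal PBM Analysis Suite. Scale: above 0.35 generally sequence-specific binding.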
GCCACAGC was tested, and the “PBM E-score” value was -0.179.
In the case of AAGCGACG, the “PBM E-score” value is reported as -0.0651.
AACTCAAA was tested, and the “PBM E-score” value was 0.119.
CAGGGCAC was tested, and the “PBM E-score” value was -0.123.
For GCAGTACC, the “PBM E-score” value was -0.0294.
In the case of AGTAATAG, the “PBM E-score” value is reported as -0.0281.
In the case of AGGGGCCA, the “PBM E-score” value is reported as -0.249.
CGATGGCC was tested, and the “PBM E-score” value was -0.109.
In the case of CTCGACTA, the “PBM E-score” value is reported as 0.13.
For GTAGGTGA, the “PBM E-score” value was -0.0513.
CGTAAGCC was tested, and the “PBM E-score” value was -0.12.
TCAGATGA was tested, and the “PBM E-score” value was 0.199.
For AATGGGGG, the “PBM E-score” value was -0.384.
With AGTTCGAT the “PBM E-score” value was -0.0328.
AAGAAAGC was tested, and the “PBM E-score” value was -0.0971.
AACTCCGT was tested, and the “PBM E-score” value was 0.0904.
For ACAGCCAT, the “PBM E-score” value was -0.0135.
With ACGGTAAG the “PBM E-score” value was -0.0433.
In the case of GCGGGTAC, the “PBM E-score” value is reported as -0.0187.
With ACAACACA the “PBM E-score” value was 0.123.
With CAACCGAA the “PBM E-score” value was 0.103.
For AGAATGGC, the “PBM E-score” value was -0.00666.
In the case of TATCCTCA, the “PBM E-score” value is reported as 0.0949.
With AGGCAACT the “PBM E-score” value was 0.0171.
In the case of AACGAAAT, the “PBM E-score” value is reported as 0.18.
AAGGGACC was tested, and the “PBM E-score” value was -0.0619.
With CCTCATAG the “PBM E-score” value was -0.181.
AACTGTAT was tested, and the “PBM E-score” value was 0.126.
GCTAGTAC was tested, and the “PBM E-score” value was 0.107.
In the case of CCAGGAAG, the “PBM E-score” value is reported as -0.0692.
With TCATCGCA the “PBM E-score” value was 0.0539.
For ACTAGCCC, the “PBM E-score” value was -0.0582.
In the case of AGAGGCAG, the “PBM E-score” value is reported as -0.0684.
For AGGGAGTG, the “PBM E-score” value was -0.343.
In the case of AGCACGTG, the “PBM E-score” value is reported as 0.118.
AATAGTGA was tested, and the “PBM E-score” value was 0.202.
For CGGCTACC, the “PBM E-score” value was -0.107.
AATGCGTC was tested, and the “PBM E-score” value was 0.031.
In the case of GTTCCTTA, the “PBM E-score” value is reported as -0.016.
With ACGGGAAG the “PBM E-score” value was -0.163.
In the case of CAGAGTAA, the “PBM E-score” value is reported as -0.139.
In the case of CAGAGATA, the “PBM E-score” value is reported as 0.118.
With CTGGCTCC the “PBM E-score” value was -0.179.
For AGAGCCTC, the “PBM E-score” value was -0.172.
With CATTAGAC the “PBM E-score” value was -0.0881.
With AGAGCGAA the “PBM E-score” value was -0.00578.
For GCTCATGA, the “PBM E-score” value was -0.0824.
In the case of GAGGGGTA, the “PBM E-score” value is reported as -0.236.
For AGCGAGTA, the “PBM E-score” value was 0.209.
With AGTGCCAA the “PBM E-score” value was -0.0241.
With GGATGGCC the “PBM E-score” value was -0.257.
In the case of CTGAGACC, the “PBM E-score” value is reported as -0.18.
With ACTGGCAC the “PBM E-score” value was -0.159.
For GATCTCAA, the “PBM E-score” value was 0.0276.
For TATAAATA, the “PBM E-score” value was 0.217.
For GGGTTTAC, the “PBM E-score” value was 0.0437.
For ATACCTAA, the “PBM E-score” value was 0.162.
ATACGCCG was tested, and the “PBM E-score” value was -0.0566.
For AATACATA, the “PBM E-score” value was 0.117.
With AACGGGCG the “PBM E-score” value was -0.103.
In the case of GGTTACAA, the “PBM E-score” value is reported as 0.138.
With AACCTGCA the “PBM E-score” value was -0.131.
AAAGCACA was tested, and the “PBM E-score” value was -0.00823.
For AAACTAGC, the “PBM E-score” value was -0.0821.
For GGATAAAC, the “PBM E-score” value was 0.0538.
With CGCAGGTC the “PBM E-score” value was -0.157.
CCCCGTGA was tested, and the “PBM E-score” value was -0.135.
GAGAATAA was tested, and the “PBM E-score” value was 0.128.
With AAGAAATC the “PBM E-score” value was -0.144.
ACAGAGCA was tested, and the “PBM E-score” value was 0.0247.
ACTCATTA was tested, and the “PBM E-score” value was 0.0179.
In the case of GTCCTCGA, the “PBM E-score” value is reported as 0.181.
In the case of ATATTGCG, the “PBM E-score” value is reported as 0.0632.
For AATATCTC, the “PBM E-score” value was 0.22.
For CAACGCGC, the “PBM E-score” value was 0.156.
ACGGTGAT was tested, and the “PBM E-score” value was -0.0895.
AGCAACAA was tested, and the “PBM E-score” value was 0.133.
With ATCCGTCG the “PBM E-score” value was -0.0239.
With TAATCCCA the “PBM E-score” value was -0.206.
With GATTGGAC the “PBM E-score” value was 0.109.
With AATACCCC the “PBM E-score” value was -0.107.
With CGCCTCAG the “PBM E-score” value was -0.124.
In the case of ATTTGATC, the “PBM E-score” value is reported as -0.0736.
In the case of CCTAGAAC, the “PBM E-score” value is reported as 0.00465.
For CCTATCTA, the “PBM E-score” value was -0.0647.
With AAAACCAG the “PBM E-score” value was 0.152.
For ATGGAATA, the “PBM E-score” value was 0.187.
In the case of AGTTGGAG, the “PBM E-score” value is reported as -0.0684.
In the case of CCACTAAA, the “PBM E-score” value is reported as -0.146.
In the case of ACAACGCA, the “PBM E-score” value is reported as 0.098.
GAACTGAC was tested, and the “PBM E-score” value was 0.0252.
CTGGTCTC was tested, and the “PBM E-score” value was -0.149.
With ACCCATTG the “PBM E-score” value was -0.0269.
ACGTTGCC was tested, and the “PBM E-score” value was -0.241.
With GCAACCAC the “PBM E-score” value was -0.131.
For AGTTCGGA, the “PBM E-score” value was 0.158.
TGTCTTAA was tested, and the “PBM E-score” value was 0.375.
In the case of ATCACTAC, the “PBM E-score” value is reported as -0.126.
ATTTGCAA was tested, and the “PBM E-score” value was 0.103.
In the case of CCACCTGA, the “PBM E-score” value is reported as -0.146.
ACGGCCTG was tested, and the “PBM E-score” value was 0.00794.
With GGAACGCC the “PBM E-score” value was -0.114.
In the case of AACACCGC, the “PBM E-score” value is reported as -0.0545.
AAAATCAA was tested, and the “PBM E-score” value was 0.245.
GCAATCTA was tested, and the “PBM E-score” value was 0.0427.
ACTGCGTG was tested, and the “PBM E-score” value was -0.193.
For CAGCGATC, the “PBM E-score” value was -0.0399.
For TGATAACA, the “PBM E-score” value was 0.134.
With GCAGCTCA the “PBM E-score” value was -0.148.
CAGGCGGA was tested, and the “PBM E-score” value was 0.223.
GTCACTCA was tested, and the “PBM E-score” value was 0.132.
With TAAAGAGA the “PBM E-score” value was 0.102.
With AGATAAAT the “PBM E-score” value was 0.0766.
GACACCAC was tested, and the “PBM E-score” value was -0.00303.
For AATGTAGC, the “PBM E-score” value was -0.0831.
With ACATACTC the “PBM E-score” value was 0.0584.
In the case of ACGGCAGC, the “PBM E-score” value is reported as -0.0632.
In the case of CGTAGTGA, the “PBM E-score” value is reported as -0.0571.
In the case of AGGTCGCA, the “PBM E-score” value is reported as -0.129.
In the case of GTTTCAAA, the “PBM E-score” value is reported as 0.115.
For AGGAGGGA, the “PBM E-score” value was -0.175.
With TGCAGTAA the “PBM E-score” value was -0.117.
For ACCGTGGG, the “PBM E-score” value was -0.191.
For CATCGTGG, the “PBM E-score” value was -0.16.
With ACTAGGCA the “PBM E-score” value was -0.0969.
For GTCCGGAA, the “PBM E-score” value was 0.368.
For ACAGAGAT, the “PBM E-score” value was 0.123.
With CACGCACG the “PBM E-score” value was -0.0776.
ATTTTGCC was tested, and the “PBM E-score” value was 0.0261.
With ATTGGGTG the “PBM E-score” value was -0.0765.
GGTTCGGA was tested, and the “PBM E-score” value was -0.00773.
With CACGTTGA the “PBM E-score” value was 0.0175.
With TCTACAGA the “PBM E-score” value was -0.0918.
For ATGAGCGA, the “PBM E-score” value was -0.0826.
In the case of AGCAAACG, the “PBM E-score” value is reported as -0.143.
ATTTAACC was tested, and the “PBM E-score” value was -0.0432.
With GTTTAGCA the “PBM E-score” value was 0.0757.
In the case of AAGCGAGA, the “PBM E-score” value is reported as -0.127.
In the case of ACCTCGGA, the “PBM E-score” value is reported as 0.27.
For GACCCGGC, the “PBM E-score” value was -0.0896.
With GCGGCACA the “PBM E-score” value was -0.0716.
AATAGCAC was tested, and the “PBM E-score” value was -0.265.
GCGTAGTA was tested, and the “PBM E-score” value was -0.246.
With CAAATGAC the “PBM E-score” value was 0.176.
With AACTCAAC the “PBM E-score” value was 0.0188.
GCCAGGCC was tested, and the “PBM E-score” value was -0.124.
For GTCATCAA, the “PBM E-score” value was 0.2.
In the case of ACCTAAGG, the “PBM E-score” value is reported as -0.14.
In the case of ATGGGATG, the “PBM E-score” value is reported as -0.177.
With CTGGCACA the “PBM E-score” value was -0.0539.
In the case of ATTTTCGC, the “PBM E-score” value is reported as 0.153.
In the case of CTAGCCGA, the “PBM E-score” value is reported as -0.0318.
In the case of TAACTCCA, the “PBM E-score” value is reported as -0.193.
For GCGCCTCC, the “PBM E-score” value was -0.251.
In the case of CTTATGGC, the “PBM E-score” value is reported as 0.00332.
With GTCCAACA the “PBM E-score” value was 0.249.
In the case of AAGACCGT, the “PBM E-score” value is reported as -0.169.
For AGTCCCGA, the “PBM E-score” value was 0.0579.
For CTCGCTGC, the “PBM E-score” value was -0.0928.
In the case of GGGCTTTA, the “PBM E-score” value is reported as -0.268.
CACTTGTC was tested, and the “PBM E-score” value was 0.408.
ACGCTGAA was tested, and the “PBM E-score” value was -0.085.
With AGCATCAA the “PBM E-score” value was -0.0363.
ACGTCCGG was tested, and the “PBM E-score” value was 0.074.
With AACGTCAT the “PBM E-score” value was 0.0824.
For AGTTAGGC, the “PBM E-score” value was 0.00759.
For TCGTGGAA, the “PBM E-score” value was 0.152.
In the case of CGAGATTA, the “PBM E-score” value is reported as 0.0953.
With AAGAAGCC the “PBM E-score” value was 0.0299.
In the case of GAGTAATA, the “PBM E-score” value is reported as 0.115.
In the case of ACATTACT, the “PBM E-score” value is reported as 0.16.
With AGACTCTC the “PBM E-score” value was 0.0159.

— the supplement of paper PMC3334620
